# Hit rate of the full screen: of about 320,000 compounds, about 200 (0.062%) were called active. This list was built around the results that the source calls inconclusive (neither active nor inactive); the mix of calls is not that of the screen. Calls come from the whole dose curve; as a rule, active = well fitted activation curve with a large enough effect; inconclusive = small, poorly fitted or top-dose-only effect; inactive = no such curve, though single readings can be large or run the other way. No potency is given beside an inconclusive call; the fits are too rough.
# Assay: qHTS assay for re-activators of p53 using a Luc reporter; note: nearly all actives have a fitted effect of over 45% in size; for activity change, positive = activation: % of control where 0% means no effect
# Details: H1299 p53-A138V BP100-luciferase reporter, luminescence, 24 h; series mostly up to 92.2 µM; activity change, positive = activation: at the top concentration
# Summary of the method: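 H1299 (p53-null), stable ts p53-A138V + BP100-Luc; 1000 cells/well, Opti-MEM/10% FBS; cpd 4 pt, 1:5; 24 h, 37 deg C, 5% CO2; detection reagent 10 min RT; luminescence.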
# Potency is the fitted concentration of half-maximal effect; tags give direction and shape of the fitted curve.
SMILES,"activity change, positive = activation",Potency
O=C(c1cc(-c2ccccc2)nc2ccccc12)N1CCC2(CC1)OCCO2,inactive: 5.65%,–
CCOC(=O)c1sc2ccccc2c1NC(=O)c1coc2ccccc2c1=O,–,"inconclusive [activator, full curve, poor fit]"
CCOc1ccc(/C=C/C(=O)C(C(N)=O)=C2SCCS2)cc1,–,"inconclusive [activator, full curve, poor fit]"
Cc1nc2cc(C(F)(F)F)ccc2n1C1CCN(Cc2nnnn2Cc2ccc3c(c2)OCO3)CC1,inactive: -9.44%,–
CN1CC=C2C(C#N)=C(N)C(C#N)(C#N)C(c3ccncc3)C2C1 (stereo not drawn),inactive: -6.16%,–
Cc1ccc(NN=C2C(=O)OC(C)(C)OC2=O)c(C)c1,–,"inconclusive [activator, partial curve, poor fit]"
CCNC(=O)O/N=C(\C)c1sc(-c2ccccc2)nc1C,–,"inconclusive [activator, full curve, poor fit]"
Cc1ccccc1-n1c(O)c(C(c2ccncc2)c2c(O)n(-c3ccccc3C)c(=O)[nH]c2=O)c(=O)[nH]c1=O,–,"inconclusive [activator, single point]"
O=C(Cn1c(=S)[nH]c2ccccc2c1=O)N1CCC2(CC1)OCCO2,inactive: -0.633%,–
O=C(COc1ccccc1)N1CCN(CCN2C(=O)c3cccc4cccc(c34)C2=O)CC1,inactive: 0.647%,–
C[C@@H]1C[C@@H]([C@H](O)CC2CC(=O)NC(=O)C2)C(=O)[C@@H](C)C1,–,"inconclusive [activator, partial curve, poor fit]"
Cc1ccc(CSc2ncccc2C(=O)O)cc1,–,"inconclusive [activator, partial curve, poor fit]"
Cc1ccc(NP(=O)(Oc2ccccc2F)Oc2ccccc2F)cc1C,inactive: -7.93%,–
COc1cc2c(c(OC)c1OC)-c1ccc(O)c(=O)cc1C(NC(C)=O)CC2 (stereo not drawn),–,"inconclusive [activator, full curve, poor fit]"
Cc1cccc(-n2c(-c3ccco3)nc3ccccc3c2=O)n1,inactive: 2.03%,–
CCOc1ccc2nc(N3CCC(C(=O)N4CCC5(CC4)OCCO5)CC3)sc2c1,–,"inconclusive [activator, full curve, poor fit]"
CCCCCn1c(=O)c(C(=O)NCc2ccncc2)c(O)c2ccccc21,–,"inconclusive [activator, single point]"
CCn1cc(C(=O)NCc2ccccc2)c2ccccc21,inactive: -4.21%,–
Clc1ccc(-c2nc3ccc(Cl)cn3c2CN2CCCCC2)cc1,–,"inconclusive [activator, partial curve, poor fit]"
COc1ccc(C(=O)NCc2cc3ccccc3n2C)cc1,–,"inconclusive [activator, partial curve, poor fit]"
C[C@@H]1O[C@@H](O[C@H]2C[C@@H](O)[C@]3(CO)[C@@H]4C(CC[C@]3(O)C2)[C@@]2(O)CC[C@H](C3COC(=O)C3)[C@@]2(C)C[C@H]4O)[C@H](O)[C@H](O)[C@H]1O (stereo partly drawn),inactive: -12.2%,–

SMILES,"activity change, positive = activation",Potency
O=C1NC(=S)N(Cc2ccco2)C(=O)/C1=C\c1cccs1,inactive: -3.97%,–
CC(C)OP(=O)(c1ccc(N(C)C)cc1)C(O)c1ccc(Br)cc1 (stereo not drawn),–,"inconclusive [activator, full curve, poor fit]"
COC(=O)C1=C(c2ccc(OC)c(OC)c2)C[C@@H]2CC[C@H]1N2C(=O)NCCc1ccccc1,–,"inconclusive [activator, full curve, poor fit]"
O=C(CSc1nnc(NC(=O)c2ccccc2F)s1)NCc1ccc(F)cc1,–,"inconclusive [activator, single point]"
COC(=O)C(O)(c1ccc(NC(=S)NC(=O)c2ccc(Cl)cc2Cl)cc1)C(F)(F)F (stereo not drawn),inactive: 12%,–
CC(=O)OC[C@]12CCC(C)=C[C@H]1O[C@@H]1[C@H](O)[C@@H](OC(C)=O)[C@@]2(C)[C@]12CO2,–,"inconclusive [activator, partial curve, poor fit]"
O=c1[nH]c(=S)[nH]c(O)c1N=Nc1ccc(OC(F)F)cc1,–,"inconclusive [activator, full curve, poor fit]"
C/C(=N\NC(=O)c1ccccc1)c1c(O)n(C2CCCCC2)c(=O)[nH]c1=O,–,"inconclusive [activator, single point]"
O=C(c1cc(F)ccc1F)C1CCCN(CCCc2ccccc2)C1 (stereo not drawn),inactive: 5.7%,–
CCCC(C)c1nnc(NC(=O)CCS(=O)(=O)c2ccccc2)s1 (stereo not drawn),–,"inconclusive [activator, single point]"
CC1CCC(C(C)C)C(OC(=O)COC(=O)c2ccccc2N)C1 (stereo not drawn),–,"inconclusive [activator, single point]"
CN(C)C(=O)Oc1ccc(OCc2nc3ccccc3[nH]2)cc1,–,"inconclusive [activator, full curve, poor fit]"
c1ccc2c(c1)OCC(C1=NCCN1)O2 (stereo not drawn),inactive: 7.37%,–
CCN1C(=O)C(=C/C=C/c2ccco2)C(=O)N(CC)C1=S,inactive: -3.03%,–
CCN1C(=O)C(=C2C=C(C)OC(C)=C2)C(=O)N(CC)C1=S,–,"inconclusive [activator, single point]"
CCCCn1c(N)c(C(=O)OCC2CCCO2)c2nc3ccccc3nc21 (stereo not drawn),inactive: 0.289%,–
O=C1NC2NC(=O)N([N+](=O)[O-])C2N1 (stereo not drawn),–,"inconclusive [activator, full curve, poor fit]"
Oc1c(Br)cc(Br)cc1Oc1ccc(Br)cc1Br,inactive: 7.63%,–
O=[N+]([O-])c1cc(F)c(N2CCCC2)cc1Br,–,"inconclusive [activator, partial curve, poor fit]"
COc1cccc(CCNCc2cccc(C(F)(F)F)c2)c1,inactive: -2.19%,–
O=C(CN1CCOCC1)NCC(=O)Nc1ccc(Br)cc1C(=O)c1ccccc1,inactive: 2.29%,–

SMILES,"activity change, positive = activation",Potency
C[C@]12CC[C@H](O)C[C@H]1CC[C@@H]1[C@@H]2CC[C@]2(C)[C@@H](C3=CC(=O)OC3)CC[C@]12O,inactive: -10.7%,–
COC(=O)C1=C(c2c(C)noc2C)C[C@@H]2CC[C@H]1N2C(=O)NCc1ccco1,inactive: 12.6%,–
Cc1nc2ccc(NC(=O)c3ccc(Cl)s3)cc2s1,–,"inconclusive [activator, partial curve, poor fit]"
CCN1CCN(C(=O)Cc2c(C)n(C(=O)c3ccc(Cl)cc3)c3ccc(OC)cc23)CC1,inactive: -0.162%,–
CC(=NCc1ccc(F)cc1)c1c(O)n(C)c(=O)n(C)c1=O,–,"inconclusive [activator, partial curve, poor fit]"
CCN(CC)c1ccc(/C=C2\C(=O)NC(=S)N(C)C2=O)o1,inactive: 16.8%,–
Cc1ccccc1-n1c(O)c(/C=N/NC(=O)c2ccccc2O)c(=O)[nH]c1=S,inactive: 11.3%,–
O=C(Cc1c(O)c2ccccc2oc1=O)c1ccc(F)cc1,–,"inconclusive [activator, full curve, poor fit]"
CCN(CC)C(=O)c1ccc(NC(=S)NC(=O)CCc2ccccc2)cc1,–,"inconclusive [activator, single point]"
Nc1ccc2c(c1)Cc1cc([N+](=O)[O-])ccc1-2,–,"inconclusive [activator, single point]"
O=C(CN1CCOCC1)c1ccc(Br)cc1,–,"inconclusive [activator, single point]"
CC1=CC(=O)NP(=O)(Oc2ccc3ccccc3c2)N1 (stereo not drawn),inactive: 15%,–
CNC(=O)Oc1ccc(-c2cn3cc(Cl)ccc3n2)cc1,–,"inconclusive [activator, partial curve, poor fit]"
COc1ccc(CN2CCN(C(=O)Cc3ccccc3)CC2)cc1Br,–,"inconclusive [activator, single point]"
CCOC(=O)C1(CCOc2ccccc2)CCN(C(C)CSC)CC1 (stereo not drawn),inactive: -3.17%,–
CN(C)c1ccc2c(c1)N=C(c1ccco1)OP2(=S)N1CCOCC1 (stereo not drawn),–,"inconclusive [activator, partial curve, poor fit]"
CN(C)C(=O)Oc1cccc(-c2cn3cc(Cl)ccc3n2)c1,–,"inconclusive [activator, full curve]"
Cc1ccc2c(c1N)C(=O)c1ccccc1C2=O,–,"inconclusive [activator, partial curve, poor fit]"
CC(=O)Nc1ccccc1C(=O)OCc1ccc(F)cc1,–,"inconclusive [activator, partial curve, poor fit]"
O=C1N(c2nncs2)CCN1[N+](=O)[O-],inactive: -6.18%,–
Cc1ccnc(-n2c(C)cc(/C=C3\C(=O)NC(=S)N(C)C3=O)c2C)c1,–,"inconclusive [activator, single point]"
